In all, about 33,000 sequences were measured (“E-score (-0.5 to 0.5)”: median about -0.054, highest 2% from about 0.35 on). This is one part of the list.
What follows are sequences tested against T1, Stb5 (UniProt P38699) (assay: PBM E-score (8-mer binding enrichment) (E-score (-0.5 to 0.5)); higher = stronger / more preferred TF binding; most listed sequences are background and not binding sites). Settings: protein concentration: 200 nM; construct: GST-full length.
T1 sequence: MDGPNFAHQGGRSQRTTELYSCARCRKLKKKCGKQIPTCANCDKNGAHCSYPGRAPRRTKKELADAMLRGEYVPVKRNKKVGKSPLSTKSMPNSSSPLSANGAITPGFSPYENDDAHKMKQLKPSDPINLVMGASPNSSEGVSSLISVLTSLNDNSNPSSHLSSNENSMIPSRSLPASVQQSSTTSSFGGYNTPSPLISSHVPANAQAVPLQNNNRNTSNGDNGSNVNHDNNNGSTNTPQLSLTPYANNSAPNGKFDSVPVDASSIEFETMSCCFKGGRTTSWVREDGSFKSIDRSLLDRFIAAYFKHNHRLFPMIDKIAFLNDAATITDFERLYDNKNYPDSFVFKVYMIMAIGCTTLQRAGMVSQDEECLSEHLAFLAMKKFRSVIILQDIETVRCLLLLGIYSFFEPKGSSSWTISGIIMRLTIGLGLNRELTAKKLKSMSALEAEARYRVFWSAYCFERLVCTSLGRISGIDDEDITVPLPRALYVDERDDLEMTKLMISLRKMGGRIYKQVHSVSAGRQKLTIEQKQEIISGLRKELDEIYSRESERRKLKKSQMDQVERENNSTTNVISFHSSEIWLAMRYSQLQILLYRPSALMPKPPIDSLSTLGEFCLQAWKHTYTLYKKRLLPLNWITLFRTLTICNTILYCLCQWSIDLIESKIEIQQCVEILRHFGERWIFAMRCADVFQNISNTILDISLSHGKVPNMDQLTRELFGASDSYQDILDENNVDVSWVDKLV
Summary of the method: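 E-scores (a modified Wilcoxon-Mann-Whitney statistic) were assigned by the Universal PBM Analysis Suite to every ungapped eight-base word pooled with its reverse complement. The input came from universal all-10-mer Agilent arrays made double-stranded by primer extension and probed with GST-tagged yeast transcription factors at about 100-200 nM. Fluorescent anti-GST detected bound protein, and masliner normalised the scans.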
In the case of ACCAGCGT, the “PBM E-score” value is reported as -0.257.
For CCCAATCG, the “PBM E-score” value was -0.061.
With AGCGTACA the “PBM E-score” value was -0.255.
ATCATGGG was tested, and the “PBM E-score” value was -0.0628.
With AGAAGTTA the “PBM E-score” value was -0.244.
AGGCCCGG was tested, and the “PBM E-score” value was 0.275.
In the case of CCCCCGAG, the “PBM E-score” value is reported as 0.0373.
With CATCTTGC the “PBM E-score” value was -0.214.
For ACCGCAAT, the “PBM E-score” value was 0.252.
With CCACAGCA the “PBM E-score” value was -0.135.
ATGCTAAA was tested, and the “PBM E-score” value was -0.0141.
With CAAAAATC the “PBM E-score” value was -0.0309.
For AGCGTAAA, the “PBM E-score” value was 0.00432.
In the case of AACACGCG, the “PBM E-score” value is reported as 0.0168.
For AAAATTTG, the “PBM E-score” value was -0.181.
For GGTGCGTA, the “PBM E-score” value was 0.0529.
For ATGGTGTA, the “PBM E-score” value was -0.118.
With GGAGCACA the “PBM E-score” value was -0.0909.
With AGCGCTCC the “PBM E-score” value was -0.0318.
With TCTCACCA the “PBM E-score” value was -0.0236.
GCGGATCA was tested, and the “PBM E-score” value was 0.0055.
For CATATGCC, the “PBM E-score” value was 0.0465.
For ATTTGCCA, the “PBM E-score” value was -0.255.
AGATAACT was tested, and the “PBM E-score” value was -0.0532.
For ACCTCCAG, the “PBM E-score” value was -0.188.
With CGACAGGC the “PBM E-score” value was -0.026.
With ACGGGTAG the “PBM E-score” value was -0.0642.
In the case of ATGTACGA, the “PBM E-score” value is reported as 0.0106.
For CAGGAACG, the “PBM E-score” value was -0.0937.
For AAAAGCGT, the “PBM E-score” value was -0.00882.
In the case of AAGCTATC, the “PBM E-score” value is reported as -0.0782.
With GCCATGAC the “PBM E-score” value was 0.00819.
GTAATTCA was tested, and the “PBM E-score” value was 0.0673.
With CTGAGAGA the “PBM E-score” value was -0.118.
In the case of ATCAGTGC, the “PBM E-score” value is reported as -0.161.
For GTAACCGA, the “PBM E-score” value was 0.082.
With ATGAAGTG the “PBM E-score” value was -0.0718.
CCGGAAGA was tested, and the “PBM E-score” value was 0.153.
For AGTAAGGC, the “PBM E-score” value was 0.0229.
In the case of GAGTTGGC, the “PBM E-score” value is reported as -0.0115.
For CCCCAATA, the “PBM E-score” value was -0.102.
AAACCATC was tested, and the “PBM E-score” value was 0.0667.
In the case of AACCGACG, the “PBM E-score” value is reported as 0.286.
AGTTCTAA was tested, and the “PBM E-score” value was -0.0599.
AGTGACTC was tested, and the “PBM E-score” value was -0.17.
For CATACGCC, the “PBM E-score” value was -0.00797.
ACCACGCA was tested, and the “PBM E-score” value was -0.177.
With CTAGTGTC the “PBM E-score” value was -0.0568.
AATTAATT was tested, and the “PBM E-score” value was -0.186.
For AGGACGTG, the “PBM E-score” value was -0.187.
In the case of GTTCTCGA, the “PBM E-score” value is reported as -0.21.
AGGCCCCC was tested, and the “PBM E-score” value was -0.0933.
For TAAGTCGA, the “PBM E-score” value was -0.107.
For GTTCGATA, the “PBM E-score” value was -0.036.
With AATCCCCG the “PBM E-score” value was 0.452.
With ATCCGGGC the “PBM E-score” value was 0.188.
AAAGGTCC was tested, and the “PBM E-score” value was 0.254.
With ACCTTGGA the “PBM E-score” value was -0.0871.
In the case of AGAGAGTG, the “PBM E-score” value is reported as -0.259.
ACTTATGA was tested, and the “PBM E-score” value was -0.0404.
GCTTTTTA was tested, and the “PBM E-score” value was -0.0386.
With CTGGATAA the “PBM E-score” value was -0.0572.
In the case of ACGTGAGA, the “PBM E-score” value is reported as -0.0529.
TGGGTTAA was tested, and the “PBM E-score” value was -0.0489.
In the case of ACGTTACC, the “PBM E-score” value is reported as 0.13.
GTGTCACA was tested, and the “PBM E-score” value was 0.00199.
For CCAGGGAA, the “PBM E-score” value was -0.356.
With CGATGGGA the “PBM E-score” value was 0.0551.
In the case of ACACCTGG, the “PBM E-score” value is reported as -0.105.
With GAAGGTCC the “PBM E-score” value was 0.124.
ATGGTTCG was tested, and the “PBM E-score” value was -0.0398.
In the case of GGTCAATA, the “PBM E-score” value is reported as -0.0135.
In the case of ACGTACAG, the “PBM E-score” value is reported as -0.0609.
ACGACGCG was tested, and the “PBM E-score” value was -0.0646.
With GCAGCAGC the “PBM E-score” value was -0.179.
GCACATCA was tested, and the “PBM E-score” value was -0.141.
For AGGAGATG, the “PBM E-score” value was -0.164.
For TAGACTAA, the “PBM E-score” value was 0.0613.
For CACTGTGG, the “PBM E-score” value was -0.209.
For GGGCCAAA, the “PBM E-score” value was 0.0379.
For CGTTGATA, the “PBM E-score” value was 0.212.
In the case of GTTCCAGA, the “PBM E-score” value is reported as -0.162.
For ATTCAATC, the “PBM E-score” value was 0.0338.
In the case of AGGATTGG, the “PBM E-score” value is reported as -0.127.
For CCCAACCG, the “PBM E-score” value was -0.182.
In the case of CACAAGTA, the “PBM E-score” value is reported as 0.00419.
With AGAAGCAA the “PBM E-score” value was -0.184.
In the case of AACCGCTC, the “PBM E-score” value is reported as 0.119.
With AGAGATCG the “PBM E-score” value was 0.0605.
CATGTAAG was tested, and the “PBM E-score” value was -0.0656.
For CTAAGGCC, the “PBM E-score” value was 0.262.
In the case of AATCCACT, the “PBM E-score” value is reported as -0.228.
In the case of GCCTCGCA, the “PBM E-score” value is reported as -0.0909.
For ACGTGTCT, the “PBM E-score” value was -0.194.
For CCGAGGAA, the “PBM E-score” value was 0.0845.
In the case of CTGCCAGC, the “PBM E-score” value is reported as -0.181.
With CCAGAGTA the “PBM E-score” value was -0.0529.
With ACTGCAAG the “PBM E-score” value was -0.214.
In the case of TCTTAGAA, the “PBM E-score” value is reported as 0.0597.
For CACTTATA, the “PBM E-score” value was 0.209.
For GGAGAGTA, the “PBM E-score” value was -0.0463.
With ACTTTTGA the “PBM E-score” value was -0.0687.
ACCATCGC was tested, and the “PBM E-score” value was -0.0968.
ACAATACG was tested, and the “PBM E-score” value was 0.0226.
With ACACACTG the “PBM E-score” value was -0.182.
With CGACTTCA the “PBM E-score” value was -0.0336.
For AACTTTGC, the “PBM E-score” value was -0.0649.
CGAGTTTA was tested, and the “PBM E-score” value was 0.179.
In the case of GTTGCTTA, the “PBM E-score” value is reported as -0.0867.
With AACATCCG the “PBM E-score” value was 0.359.
